Assay results from publication PMC3353973 (PLoS ONE, 2012).

System: HIV-1 LAI/IIIB
Conditions: TZM-bl cells; for IC50: read-out: IC50, inhibition of HIV-1 infectivity, strain IIIB, X4 strain LAI/IIIB, moi 4, luciferase read-out after 48 h

Compound	Potency increase versus the untagged HR-derived peptide (HIV-P2), strain IIIB (ratio of IC50)	IC50
CC[C@H](C)[C@H](NC(=O)[C@H](CC(C)C)NC(=O)[C@H](CO)NC(=O)[C@H](Cc1c[nH]cn1)NC(=O)[C@@H](NC(=O)[C@H](CC(C)C)NC(=O)[C@H](CO)NC(=O)[C@@H](NC(=O)[C@H](Cc1ccc(O)cc1)NC(=O)[C@H](CC(N)=O)NC(=O)[C@H](CC(N)=O)NC(=O)[C@@H](NC(=O)[C@H](CCC(=O)O)NC(=O)[C@H](CCCNC(=N)N)NC(=O)[C@H](CC(=O)O)NC(=O)[C@H](Cc1c[nH]c2ccccc12)NC(=O)[C@H](CCC(=O)O)NC(=O)[C@H](CCSC)NC(=O)[C@H](Cc1c[nH]c2ccccc12)NC(C)=O)[C@@H](C)CC)[C@@H](C)O)[C@@H](C)CC)C(=O)N[C@@H](CCC(=O)O)C(=O)N[C@@H](CCC(=O)O)C(=O)N[C@@H](CO)C(=O)N[C@@H](CCC(N)=O)C(=O)N[C@@H](CC(N)=O)C(=O)N[C@@H](CCC(N)=O)C(=O)N[C@@H](CCC(N)=O)C(=O)N[C@@H](CCC(=O)O)C(=O)N[C@@H](CCCCN)C(=O)N[C@@H](CC(N)=O)C(=O)N[C@@H](CCC(=O)O)C(=O)N[C@@H](CCC(N)=O)C(=O)N[C@@H](CCC(=O)O)C(=O)N[C@@H](CC(C)C)C(=O)N[C@@H](CC(C)C)C(=O)NCC(=O)N[C@@H](CO)C(=O)NCC(=O)N[C@@H](CSC1CC(=O)N(CCCC(=O)NCCOCCOCCOCCOCCC(=O)NCCN(CCNC(=O)CCOCCOCCOCCOCCNC(=O)CCCN2C(=O)CC(SC[C@H](NC(=O)CNC(=O)[C@H](CO)NC(=O)CNC(=O)[C@H](CC(C)C)NC(=O)[C@H](CC(C)C)NC(=O)[C@H](CCC(=O)O)NC(=O)[C@H](CCC(N)=O)NC(=O)[C@H](CCC(=O)O)NC(=O)[C@H](CC(N)=O)NC(=O)[C@H](CCCCN)NC(=O)[C@H](CCC(=O)O)NC(=O)[C@H](CCC(N)=O)NC(=O)[C@H](CCC(N)=O)NC(=O)[C@H](CC(N)=O)NC(=O)[C@H](CCC(N)=O)NC(=O)[C@H](CO)NC(=O)[C@H](CCC(=O)O)NC(=O)[C@H](CCC(=O)O)NC(=O)[C@@H](NC(=O)[C@H](CC(C)C)NC(=O)[C@H](CO)NC(=O)[C@H](Cc3c[nH]cn3)NC(=O)[C@@H](NC(=O)[C@H](CC(C)C)NC(=O)[C@H](CO)NC(=O)[C@@H](NC(=O)[C@H](Cc3ccc(O)cc3)NC(=O)[C@H](CC(N)=O)NC(=O)[C@H](CC(N)=O)NC(=O)[C@@H](NC(=O)[C@H](CCC(=O)O)NC(=O)[C@H](CCCNC(=N)N)NC(=O)[C@H](CC(=O)O)NC(=O)[C@H](Cc3c[nH]c4ccccc34)NC(=O)[C@H](CCC(=O)O)NC(=O)[C@H](CCSC)NC(=O)[C@H](Cc3c[nH]c4ccccc34)NC(C)=O)[C@@H](C)CC)[C@@H](C)O)[C@@H](C)CC)[C@@H](C)CC)C(N)=O)C2=O)CCO[C@H]2CC[C@@]3(C)C(=CC[C@H]4[C@@H]5CC[C@H]([C@H](C)CCCC(C)C)[C@@]5(C)CC[C@@H]43)C2)C1=O)C(N)=O (stereo partly drawn) [HIV-P4]	150 fold	0.21 ± 0.37 nM
CC[C@H](C)[C@H](NC(=O)[C@H](CC(C)C)NC(=O)[C@H](CO)NC(=O)[C@H](Cc1c[nH]cn1)NC(=O)[C@@H](NC(=O)[C@H](CC(C)C)NC(=O)[C@H](CO)NC(=O)[C@@H](NC(=O)[C@H](Cc1ccc(O)cc1)NC(=O)[C@H](CC(N)=O)NC(=O)[C@H](CC(N)=O)NC(=O)[C@@H](NC(=O)[C@H](CCC(=O)O)NC(=O)[C@H](CCCNC(=N)N)NC(=O)[C@H](CC(=O)O)NC(=O)[C@H](Cc1c[nH]c2ccccc12)NC(=O)[C@H](CCC(=O)O)NC(=O)[C@H](CCSC)NC(=O)[C@H](Cc1c[nH]c2ccccc12)NC(C)=O)[C@@H](C)CC)[C@@H](C)O)[C@@H](C)CC)C(=O)N[C@@H](CCC(=O)O)C(=O)N[C@@H](CCC(=O)O)C(=O)N[C@@H](CO)C(=O)N[C@@H](CCC(N)=O)C(=O)N[C@@H](CC(N)=O)C(=O)N[C@@H](CCC(N)=O)C(=O)N[C@@H](CCC(N)=O)C(=O)N[C@@H](CCC(=O)O)C(=O)N[C@@H](CCCCN)C(=O)N[C@@H](CC(N)=O)C(=O)N[C@@H](CCC(=O)O)C(=O)N[C@@H](CCC(N)=O)C(=O)N[C@@H](CCC(=O)O)C(=O)N[C@@H](CC(C)C)C(=O)N[C@@H](CC(C)C)C(=O)NCC(=O)N[C@@H](CO)C(=O)NCC(=O)N[C@@H](CSCC(N)=O)C(N)=O [HIV-P2]		31.1 ± 36 nM
